Measured values from the RNAGym collection of RNA variant scans (doi:10.1073/pnas.2313332121).
Variants at the background level are over-represented here.

B1: TPR 5TU (parent)
chain: GGAUCUUCUCGAUCUAACAAAAAAGACAAAUCUGCCACAAAGCUUGAGAGCAUCUUCGGAUGCAGAGGCGGCAGCCUUCGGUGGCGCGAUAGCGCCAACGUUCUCAACUAUGACACGCAAAACGCGUGCUCCGUUGAAUGGAGUUUAUCAUG

Variants of: B1
Assay: polymerase ribozyme fitness, log enrichment relative to wild type (log ratio); higher = more active; in vitro selection for triplet polymerase activity
In short: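 Fitness is a logarithmic measure of how a genotype enriched relative to the wild type, with replicate averages weighted by inverse variance. The logarithm uses base 2, and enrichment came from Illumina sequencing of input and output libraries. Those libraries were PCR-built, transcribed mutants of each subunit of a heterodimeric triplet polymerase ribozyme, passed through one triplicate in vitro selection round that included frozen incubation at −7 °C, gel excision of extended constructs and streptavidin-bead capture. Genotypes were kept only if they had ≥10 input reads and ≥1 read per output.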

Polymerase ribozyme fitness (log ratio), ≤ -4.2:
GGAUCUUCUCGAUCUAACAAAAAAGACCAAUCUGCCACAAAACUUGAGAGCAUCUUCGGAUGCAGAGGCGGCAGCCUUCGGUGGCGCGACAGCCCCACCGUUCUCAACUAUGACACGCAAAACGCGUGCUCCGUUGAAUGGAGUUUAUCAUG [A28C G42A U90C G94C A98C]
GGAUCUUCUCGAUCUAACAAAAAAGACCAAUCUGCCACAAAUCUUGAGAGCAUCUUUGGAUGCAGAGGCUGCAGCCUUCGGUGGUGCGAUAGCGCCAACGUUCUCAACUAUGACACGCAAAACGCGUGCUCCGUUGAAUGGAGUUUAUCAUG [A28C G42U C57U G70U C85U]
GGAUCUUCUCGAUCUAACAAAAAAGACCAAUCUGCCACAAAUCUUGAGAGCAUCUUCGGAUACCGAGGCGGCAGCCUUCGGUAUCGCGAUAGCGCCAACGUUCUCAACUAUGACACGCAAAACGCAUGCUCCGUUGAAUGGAGUUUAUCAUG [A28C G42U G62A A64C G83A G84U G126A]
GGAUCUUCUCGAUCUAACAAAAAAGACCAAUCUGCCACAAAGCUUCAGAGCAUCUUCGGAUGCAGAGGCGGCAGACUUCGGUGGCGCGUUAGCGUCAACGUGCUCAACUAUGACACGCAAAACGCGUGCUCCGUUGAAUGGAGUUUAUCAUG [A28C G46C C75A A89U C95U U102G]
GGAUCUUCUCGAUCUAACAAAAAAGACCAAUCUGCCACAAAGCUUGAUAGCAUCUUCGGAUGCAGAGGGGGCAGCCUUCGGUGGUGCGUUAGCGCCAACGAUCUCAACUAUGACAAGCAAAACGCGUGCUCCGUUGAAUGGAGUUUAUCACG [A28C G48U C69G C85U A89U U101A C116A U151C]
GGAUCUUCUCGAUCUAACAAAAAAGACCAAUCUGCCACAAAGCUUGAGACCAUCUUCGGAUGCAGAGGCGGCAGCCUUCGGUGGCGCGAUAGGGCCAACGUUCUAAACUAUGACACGCAAAACGCGUGCUCCGCUGAAUGGAGUUUAUCAUG [A28C G50C C93G C105A U134C]
GGAUCUUCUCGAUCUAACAAAAAAGACCAAUCUGCCACAAAGCUUGAGAGCAUCUUCAGAUGCAGAGGCGGCAGCCUUCGGUGGAGCGAUAGCGCCAACGUUCUCAACUAUGACACGCAAAACGCGUGCUCCGUUGAAUGGGGUUUAUCAUG [A28C G58A C85A A142G]
GGAUCUUCUCGAUCUAACAAAAAAGACCAAUCUGCCACAAAGCUUGAGAGCAUCUUCGAAUGCAGAGGCGGCAGCCAUCGGUGACGCGAAAGCGCCAACGUUCUCAACUAUGACACGGAAAACGCGGGCUCCGUUGAAUGGAGUUUAUCAAG [A28C G59A U77A G84A U90A C118G U127G U151A]
GGAUCUUCUCGAUCUAACAAAAAAGACCAAUCUGCCACAAAGCUUGAGAGCAUCUUCGUAUGCAGAGGCAGCAGCCUUCGGUGGCGCUAUAGCGCCAACGUUCUCAACUAUGACACGCAAAACGCUUGCUCCGUUGAAUGGAGUUUAUCAUG [A28C G59U G70A G88U G126U]
GGAUCUUCUCGAUCUAACAAAAAAGACCAAUCUGCCACAAAGCUUGAGAGCAUCUUCGGAUGCAGAGGCGGCAGCCUUCGGUGACGCGAUUGCGCCAACGUUCUGAAGUAUGACACGCAAAACGCGUGCUCCGUUGAAUGGAGUUUAUCAUG [A28C G84A A91U C105G C108G]
GGAUCUUCUCGAUCUAACAAAAAAGACCAAUCUGCCACAAAGCUUGAGAGCAUCUUCGGAUGCAGAGGCGGCAGCCUUCGGUGGCGCAAUAGCGCCAACGUUCUCGACUAUGACACGCAAAACGCGUGCUCCGUUGAAUGGAGUUUAUCAUG [A28C G88A A106G]
GGAUCUUCUCGAUCUAACAAAAAAGACCAAUCUGCCACAAAGCUUGAGAGCAUCUUCGGAUGCAGAGGCGGCAGCCUUCGGUGGCGCAAUAGCACCCACGUUCUCAACUAUGACACGCAAAACGCGUGCUCCGUUGAAUGGAGUUUAUCAUG [A28C G88A G94A A97C]
GGAUCUUCUCGAUCUAACAAAAAAGACCAAUCUGCCACAAAGCUUGAGAGCAUCUUCGGAUGCAGAGGCGGCAGCCUUCGGUGGCGCCAUAGCGCCAACGUUCUCAACUAUGACACGCAAAACGCGUGCUCCGUUGAAUGGAGUUUAUCAUG [A28C G88C]
GGAUCUUCUCGAUCUAACAAAAAAGACCAAUCUGCCACAAAGCUUGAGAGCAUCUUCGGAUGCAGAGGCGGCAGCCUUCGGUGGCGCGAUAGCGCCAACGUUCUCAACUAUGACACGCAAAACGCGUGCUCCGUUGAAUAGAGUUUAUCAUG [A28C G140A]
GGAUCUUCUCGAUCUAACAAAAAAGACCAAACUGCCACAAAGCUUGAGAGCAAAUUCGGAUGCAGAGGCGGUAGCCUCCGGUGGCGCGAUAGCGCCAACGUUCUCAGCUAUGACACGCAAAACGCUUGCUCCGUUGAAUGGAGUUUAUCAUG [A28C U31A U53A C54A C72U U78C A107G G126U]
GGAUCUUCUCGAUCUAACAAAAAAGACCAAGCUGCCACAAAGCUUGAGACCCUCUUCGGAUGCAGAGGCGGCAACCUUCUGUGGCUCGAUAGCGCCAACGUUCUCAACUAUGACACGCAAUACGCGUGCUCCGUUGAAUGGAGUUUAUCAUG [A28C U31G G50C A52C G74A G80U G86U A121U]
GGAUCUUCUCGAUCUAACAAAAAAGACCAAUCAGCCACAAAGCUUGAGAGCAUCUUCGGAUGCAGAGGCGGCAGCCUUCGGUGGGGCGAUAGCGCCAACGUUCUCAACUAUGACACGCAAAACGCGUGCUCCGUUGAAUGGAGUUUAUCAUG [A28C U33A C85G]
GGAUCUUCUCGAUCUAACAAAAAAGACCAAUCUGCCACAAAGCAUGAGAGCAUCUUCGGAUGCAGAGGCGGCAGCCUUCGGUGGCGCGAUAGCGCCAACGUACUGAACUAUGACACGCAAAACGCGUGCUCCGUUGAAUGGAGUCUAUCAUG [A28C U44A U102A C105G U145C]
GGAUCUUCUCGAUCUAACAAAAAAGACCAAUCUGCCACAAAGCUAGAGAGCAUCUUCGGAUGCAGAGGCGGCAGCCUUCGGUGGCGCAAUAGCGCAAACAUUCUCAACUAUGACACGCAAAACGCGUGCUCCGUUGAAUGGAAUUUAUCAUG [A28C U45A G88A C96A G100A G143A]
